The values that follow come from the RNAGym collection of RNA variant scans (doi:10.7554/elife.90254).

B1: LINE1-mini (parent)
chain: GGCAGAGCUCAACACAGCGUGGCAAAGUGGCUGUGGCUAGACUGCC

The source gives no read counts; variants with many changes may rest on few reads.

This data set covers variants of B1. As to the kind of experiment: self-cleavage, relative activity (ratio to wild type); higher = more cleavage; in vitro, sequencing; the parent is a self-cleaving ribozyme.
In the case of GGCAGAUCCCAACAGAGCGUGGCAAAGUGGCUGUGGCUAGACUGCC [G7U U9C C15G], the self-cleavage came out at 0.11.

GGCAGAUCUCAACACAGCGUGGCAAAGUCGCAGUGGCUAGACUGCU [G7U G29C U32A C46U]: the self-cleavage was determined as 0.03.

In the case of GGCAGAUCGCAACACGGAGUGACAAAGUCGCUGUGGCUCGACUUCC [G7U U9G A16G C18A G22A G29C A39C G44U], the self-cleavage is 0.05.

In the case of GGCAGAGAUCUACACAGCGUGGCAAAGUGGCUGUGGCAAGACUGCC [C8A A11U U38A], the self-cleavage was found to be 0.01.

With GGCAGAGAUCAACUCAGCGUGGCGAAGUGGCUGUGGCUAGACUGCC [C8A A14U A24G], the self-cleavage was 0.05.

As for GGCAGAUCUCAACACAGCGUCGCAAAGUGGCUGUGGCCAGACUGCC [G7U G21C U38C], the self-cleavage was determined as 0.03.

As to GGCAGAUCUCAACACAGCGUGCAAAAGUGGCUGCGGCCAGACUGCC [G7U G22C C23A U34C U38C], the self-cleavage was 0.23.

Consider GGCAGAUCUCAACACACCGUGGCUAAGUGGCUGGGGCUAGAAAGCC [G7U G17C A24U U34G C42A U43A], for which the self-cleavage came out at 0.08.

Consider GGCAGAUCGCAAGCCAGCGUGGCAAAGUGGUUGUGGCUAGACUGCC [G7U U9G C13G A14C C31U], for which the self-cleavage was determined as 0.01.

Consider GGCAGAUCUCAACACAACGUGGCAACGUGGCUGAGGCUAGACUGCC [G7U G17A A26C U34A], for which the self-cleavage was 0.02.

Take GGCAGAGAUCAACCCAGCGUGGCAAAGUGGCUGUGCCUAGACUGCA [C8A A14C G36C C46A]: the self-cleavage came to 0.05.

As to GGCAGAGAUCAUCACUGCGAGGCAAAGUGGCUGUAGCUAGGCUGCG [C8A A12U A16U U20A G35A A41G C46G], the self-cleavage amounted to 0.04.

With GGCAGAUCUCAACACAGCGUAGCAAACUGGCUGUGGCUACACUGCC [G7U G21A G27C G40C], the self-cleavage worked out at 0.2.

In the case of GGCAGAUCUCAACACAGCGUGCCAAAGUGGCUGUGGCUAGAAUGCC [G7U G22C C42A], the self-cleavage is 0.2.

As to GGCAGAUCUCAACACAGCGUGGCAAAGUGGCUGUUGGUAGACUGCC [G7U G35U C37G], the self-cleavage amounted to 0.04.

Consider GGCAGAUCUCAACACAGCGUGGCAAAGUGGCAAUGGCUAGACUGCC [G7U U32A G33A], for which the self-cleavage was 0.02.

On to GGCAGAGAUCAGCACAGCGUGGCAAAGUGGCAGAGGCUAGACUGCC [C8A A12G U32A U34A], for which the self-cleavage amounted to 0.7.

Regarding GGCAGAGAUCAACGCAGCGUGGCAAAGUGGCUGUGGCUAGACUGGC [C8A A14G C45G], the self-cleavage amounted to 0.28.

With GGCAGAUCGCAACACCGUGCGGCAAAGUGGCUGUGGUUAGACUGCC [G7U U9G A16C C18U U20C C37U], the self-cleavage worked out at 0.08.

With GGCAGAUCUCAACACAGCGUCGCAAAGUGGCUGUGGCUAGACUGUG [G7U G21C C45U C46G], the self-cleavage was 0.61.

With GGCAGAGAUCCACACAGCGUGGCAAAGUCGCUGUGGCUAGACUGCC [C8A A11C G29C], the self-cleavage stood at 0.03.

Take GGCAGAGAUCUACACAGCGUGGCAAAGUGGCUGUGGCUAGAGUGCC [C8A A11U C42G]: the self-cleavage came to 0.01.

GGCAGAGAUCAACACGGCGUGGCAAAGUGGCUGUGGCUAAACUGAC [C8A A16G G40A C45A]: the self-cleavage stood at 0.28.

For the variant GGCAGAGAUCAACGCAGCGUGGCAAAGUGGCUGUAGCUAGACUGCC [C8A A14G G35A], the self-cleavage turned out to be 0.34.

With GGCAGAUCUCAACACAGCGUGGCAAAUUGGAUGUGGCUAGACUGCC [G7U G27U C31A], the self-cleavage was 0.06.

In the case of GGCAGAGAUCAACUCAGCGCGGCAAAGUGGCUGUGGCUAGACUGCC [C8A A14U U20C], the self-cleavage was 0.19.

Turning to GGCAGAGAUCAACCAAGCGUGGCAACGUGGCUGUGGCUAGACUGCC [C8A A14C C15A A26C], the self-cleavage is 0.14.

For the variant GGCAGAUCUCAACACAGCGUUGCAAAGUGGCUGUGGCAAGAGUGCC [G7U G21U U38A C42G], the self-cleavage was determined as 0.02.

GGCAGAUCUCAACACAGCGUAGCAAAUUGGCUGUGGCUAGACUGCC [G7U G21A G27U]: the self-cleavage was found to be 0.08.

Take GGCAGAGAUCAACACGGCGUGGCAAAGUGGCUGUGGCUAGACUGAC [C8A A16G C45A]: the self-cleavage was found to be 0.18.

As to GGCAGAGAUCGACAAAGCAUGGCAAAGUGGCUGUGGCUAAACUGGC [C8A A11G C15A G19A G40A C45G], the self-cleavage amounted to 0.02.

With GGCAGAUCUCAACACAGCGAGCCAACGUGGCUGUGGCUAGACUGCC [G7U U20A G22C A26C], the self-cleavage amounted to 0.03.

In the case of GGCAGAGAUCAACACUGCGUGGCAUAAUGGCUGUGGCUAGACUGCC [C8A A16U A25U G27A], the self-cleavage amounted to 0.15.

On to GGCAGAUCUCAACACAGCGCGGCAAAGUGGUUGUGGCUAAACUGCC [G7U U20C C31U G40A], for which the self-cleavage was 0.03.

In the case of GGCAGAGAUCAACACGUCGUGGCAAAGUGGCUGAGGCUAGACUGUC [C8A A16G G17U U34A C45U], the self-cleavage amounted to 0.11.

GGCAGAGAUCAACUCAGCGUGGCAACGUGGCUGUGGCUUGACUGCC [C8A A14U A26C A39U]: the self-cleavage was determined as 0.14.

With GGCAGAUCUCAACACAGCGUGGCAAAGUGGCUGGGGCUAGACUGCU [G7U U34G C46U], the self-cleavage came out at 0.04.

For GGCAGAGAUCAACACGUGGCGGCAAAGUGGCUGUGGCUAGACUGCC [C8A A16G G17U C18G U20C], the self-cleavage was 0.05.

With GGCAGAGAUCUACACAGCGUGGCAAAGUGGCUGUGGCUAGACUGCA [C8A A11U C46A], the self-cleavage was found to be 0.02.

For GGCAGAGAUCGACUCAGCGUGGCAAAGUCACUGUGGCUAGACUGCC [C8A A11G A14U G29C G30A], the self-cleavage stood at 0.01.

Regarding GGCAGAGAUCUACACAGCGUGGUAAAGUGGCUGUGGCUAGACUGCC [C8A A11U C23U], the self-cleavage stood at 0.02.

Take GGCAGAUCUCAACACAGCGUGGCAAAGUGUCUGUGGUUCGACCACC [G7U G30U C37U A39C U43C G44A]: the self-cleavage was 0.15.

In the case of GGCAGAGAUCACCACAGCGUCGCAAAGUGGCUGUGGCUAGACUGCC [C8A A12C G21C], the self-cleavage was found to be 0.02.

Consider GGCAGAUCUCAACACAGCGUAGCCAAGUGGCUGUGGCUAGUCUGGC [G7U G21A A24C A41U C45G], for which the self-cleavage was found to be 0.

In the case of GGCAGAUCUCAACACAGCGUGACAAAGUAGCUGUGGCUAGACUGCC [G7U G22A G29A], the self-cleavage was 0.02.

Turning to GGCAGAUCUCAACACAGCGUGGCAAAGUGGCUGUAGGUCGACUGCC [G7U G35A C37G A39C], the self-cleavage amounted to 0.24.

Regarding GGCAGAGAUCAACUCAGCGUGGCAAAGUGGCUGUGGCUUGACUGCC [C8A A14U A39U], the self-cleavage was 0.23.

As to GGCAGAUCUCAACACAGCGUUGCAAAGUGGCUAUGGCUAGACUGCC [G7U G21U G33A], the self-cleavage came out at 0.1.

Turning to GGCAGAGAUCAACUCAGCGUGGAAAAGUGGCUGUGGCUAGACUGCC [C8A A14U C23A], the self-cleavage came out at 0.21.

On to GGCAGAUCUCAACACAGCGUCGCAAAGUGGCUUUGGCCAGACCGCC [G7U G21C G33U U38C U43C], for which the self-cleavage amounted to 0.08.

For GGCAGAUCUCAACACAGCACGGCAAAGUGGCUGUGGCUAGACUGCC [G7U G19A U20C], the self-cleavage amounted to 0.1.

Regarding GGCAGAGAUCAACUCAGCGUGGCAAAGUGGCUGUGGCUGGAGUGCU [C8A A14U A39G C42G C46U], the self-cleavage amounted to 0.04.

Consider GGCAGAGAUCGACACAGCGAGGUAAAGUGGCUGUGGCUAGACUGCC [C8A A11G U20A C23U], for which the self-cleavage was 0.02.

GGCAGAUCUCAACACAUCGUGGCAGAGUGGCUGUGGCUAGACUGCC [G7U G17U A25G]: the self-cleavage came out at 0.08.

As to GGCAGAUCUCAACACAGCGGGGCGAAGUUUCUGUGGCUAGACUGUC [G7U U20G A24G G29U G30U C45U], the self-cleavage was found to be 0.1.

In the case of GGCAGAUCUCAACACAGCGUGGGAAAGUGGCUGUGGCUAGAAUGCC [G7U C23G C42A], the self-cleavage was 0.02.
